{
  "source": "the supplement of paper PMC12632987",
  "binders": {"B1": {"name": "GBRAP_150_3939 (protein)", "chain": "DLEELLLLAQGIETDLELALEPGFDKLKLAERALELAKDIAKESDEELKKLAEELIKLLEEAIKAIKAGAEEKEIQKLLEEALRKARELIEEIEKKIEEE"}, "B2": {"name": "GBRAP_184_5122 (protein)", "chain": "DVVHRAVEGEKAEELIAASRAVVEEAAAAGKRLHLSVFAKNMSVEEIIEVIKAMGELKARYPQVSVTVDVLDELSEEEIDKVLKAADEAGVRVVIAIPEE"}, "B3": {"name": "GBRAP_184_5111 (protein)", "chain": "KLLEETIKANNKEELEKKLTEVVEKAVKEKADLLVIVEIPNLTPEMAEIIMDKVAKAKEAGIKNVLVEIVSDNLSDEVIDTIDKKAKEYGLTNVVLAMKE"}, "B4": {"name": "GBRAP_26_5482 (protein)", "chain": "IEEEIEKLRERLKEVAKKLPDPTLAAALIASIDTLFEELEEYVEKNKNDLEAIKKALEETKKELLKDAEELGASPEAIEALKKELDEGFEEILKKAKEEL"}, "B5": {"name": "GBRAP_166_4992 (protein)", "chain": "SDEELLEETKKYIDEAFEEAKTASPEERREIIAEANLKVNEAIEKLKNLELAKELAVYFVERLVELLGSAEEARRLIVWPLSVPEEVIDAAEERLRELAE"}, "B6": {"name": "GBRAP_186_5396 (protein)", "chain": "ENKEEEHDKILKELEKENDIVIIVYLDSKDSLEKKKKIMENDVEAAEALAKETGKKVAVVFEVIDDEETLKELEKYVKELDKEAKERSGVTVKLLGKIKK"}, "B7": {"name": "GBRAP_80_6787 (protein)", "chain": "AEARLEAALAELAAIDPELAELLREIVELARELGVSLETLAELAEAVLELAKADLELARERLEELLELLRELREEGDSANAEAVLRVEAGEMLLEVEELE"}, "B8": {"name": "GBRAP_160_4462 (protein)", "chain": "MEKVKEAVEELLEDVEEELERSEDMSPEQLYLAVAITVGSELLEWSSEGLITDEQEEVLAKAIDELLALAKEKPDASLEEAKEEARRIVEEAAEKILELA"}},
  "note": "Whole data set: some 4,500 sequences, median “median log2 fold change of GCK-ALFA target abundance (FLAG IP / Myc IP barcode read proportion)” near 0.078, cut for the lowest 2% near -0.6. The list shows a part of the results.",
  "data": [
    {"target": "GABARAP, O95166", "sequence (O95166 whole entry, the tested form may be a part)": "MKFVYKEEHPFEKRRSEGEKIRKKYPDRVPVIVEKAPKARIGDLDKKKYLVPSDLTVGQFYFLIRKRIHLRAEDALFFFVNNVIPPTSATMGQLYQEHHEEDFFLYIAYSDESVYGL", "test": "median log2 fold change of GCK-ALFA target abundance (FLAG IP / Myc IP barcode read proportion) (log2 ratio); each designed protein is fused to an ALFA-tag nanobody in HEK293 cells to bring the named protein to FLAG-tagged glucokinase (GCK); Myc marks an untargeted standard; higher = target protein stabilised (more abundant)", "settings": "target protein: 3xFLAG-MCP-GCK-ALFA reporter; HEK293 landing pad (RPLP)", "procedure,_shortened": "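HEK293 landing-pad cells received a recombined binder library fused to the ALFA nanobody and were induced with 2 μg mL^−1 doxycycline, then transfected with a plasmid encoding a FLAG-tagged target and a Myc-tagged standard. Lysates were collected after 48 h for anti-FLAG and anti-Myc immunoprecipitation, and the circular RNA barcodes were reverse transcribed, amplified and sequenced. Target abundance for each binder is the median log2 ratio of FLAG to Myc barcode read proportions. Barcodes had to reach a proportion of at least 10^−7 in both replicates, each binder needed at least 3 barcodes per replicate, a pseudocount of 10^−6 was applied, and the two replicates were pooled.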", "values": [
      {"binder": "B1", "median log2 fold change": 0.139},
      {"binder": "B2", "median log2 fold change": 0.0426},
      {"binder": "B3", "median log2 fold change": 0.326},
      {"binder": "B4", "median log2 fold change": 0.426},
      {"binder": "B5", "median log2 fold change": 0.282},
      {"binder": "B6", "median log2 fold change": -0.0896},
      {"binder": "B7", "median log2 fold change": -0.358},
      {"binder": "B8", "median log2 fold change": -0.501}
    ]}
  ]
}
